Target: main protease (Mpro) of SARS-CoV-2 virus (Severe acute respiratory syndrome coronavirus 2, UniProt P0DTD1)
Assay: Inhibition of main protease (Mpro) of SARS-CoV-2, fluorescence kit (BPS Bioscience 78042-2)
Details: 30 min pre-incubation at room temperature; Ex/Em=360/460 nm; slope of fluorescence; read-out: IC50, enzyme activity of the Mpro

CCC[C@@H]1NC(=O)[C@@H](NC=O)CNC(=O)[C@H](CS(=O)(=O)O)NC(=O)/C=C/c2csc(n2)[C@H](Cc2ccc(O)cc2)NC(=O)C(=O)[C@H]([C@@H](C)CC)NC1=O [TM]
IC50: 129 µM
